# Data from patent US12116388B2, “Amylin receptor agonists” (Novo Nordisk A/S, priority 2022, dated 2024).
# For at least one compound, name, drawing or mass did not settle the structure. Starred links: 1 amine or outer side, 2 acyl side, 3 side chain; linkers in the order of their positions; H or OH if unused. Residues, ends and D or L forms follow the SMILES beside them. *: point of attachment. C18 diacid = O=C(O)CCCCCCCCCCCCCCCCC(=O)*; γGlu = O=C(O)[C@H](CCC(=O)[*:2])N[*:1]
# System: Sprague Dawley (SD) rats
# Experiment: Acute food intake in ad libitum fed rat model
# Format: in vivo
# Conditions: single s.c. administration, negative value = reduced food intake
# Description: Lyophilised compound was dissolved in vehicle, 8 mM phosphate, 250 mM glycerol, 0.007% polysorbate 20, and pH was adjusted to 7.4 with 1N NaOH.
# Normal weight Sprague Dawley (SD) rats from Taconic Europe, Denmark, were used for the acute food intake studies. The purpose of these studies was to test in vivo effect on food intake and to provide an indication of the compounds' duration of action. Experiments were conducted with permission from the Danish Animal Experiments Inspectorate and were performed in accordance with the guidelines of the Danish legislation governing animal experimentation (1987) as well as the National Institutes of Health (publication number 85-23) and the European Convention for the Protection of Vertebrate Animals used for Experimental and other Scientific Purposes (Council of Europe No 123, Strasbourg 1985).
# Prior to study start, rats were acclimatized to the experimental settings for 14 days. During this period, the animals were handled at least 2 times. Immediately upon arrival, rats were put on a reversed light cycle (dark from 10 am-10 pm or 11 am-11 pm) and were transferred into one of three following food intake measuring systems: FeedWin, BioDaq or HM2. Rats were single housed in the FeedWin and BioDaq system and were housed three a cage in the HM2 system (rats were in this case ID-chipped). During the acclimatization period, in which the rats get used to the new light cycle and diet, the animals had free access to food and water. […] Each amylin analogue was tested in a group of 5-6 rats. A vehicle group of 5-6 rats was included in each experiment and were used as reference point. In case of studies in the HM2 system, rats in same cage received different treatments to eliminate interference of potential technical variations between cages. At start of treatment, rats were dosed once (subcutaneously) based on body weight with a protracted amylin analogue, receiving a dose of 3 nmol/kg. The time of dosing was recorded for each rat.
# After dosing, rats were returned to their home cages, where they had access to food and water. Food consumption was recorded individually and continuously by on-line registration for up to 72 h post dosing. At the end of the experiment, body weight was measured again, and animals were euthanized by CO2 overdose.
Structure (SMILES),"Food intake relative to vehicle (%) 0-24 hr, 3 nmol/kg","Food intake relative to vehicle (%) 24-48 hr, 3 nmol/kg","Food intake relative to vehicle (%) 48-72 hr, 3 nmol/kg"
"CC[C@H](C)[C@H](NC(=O)[C@H](C)NC(=O)CNC(=O)[C@H](Cc1ccccc1)NC(=O)[C@@H]1CCCN1C(=O)[C@H](CC(=O)O)NC(=O)[C@H](CO)NC(=O)[C@H](CO)NC(=O)[C@H](Cc1c[nH]cn1)NC(=O)[C@H](Cc1c[nH]cn1)NC(=O)[C@H](CC(C)C)NC(=O)[C@H](Cc1ccccc1)NC(=O)[C@H](CCC(=O)O)NC(=O)[C@H](C)NC(=O)[C@H](CC(C)C)NC(=O)[C@H](CCCNC(=N)N)NC(=O)[C@H](CCC(N)=O)NC(=O)[C@@H](NC(=O)[C@H](CCC(N)=O)NC(=O)[C@H](C)NC(=O)[C@@H](NC(=O)[C@H](CO)NC(=O)[C@H](CC(C)C)NC(=O)[C@H](CO)NC(=O)CNC(=O)[C@H](C)NC(=O)CC[C@H](NC(=O)CCCCCCCCCCCCCCCCC(=O)O)C(=O)O)[C@@H](C)O)[C@@H](C)O)C(=O)N1CCC[C@H]1C(=O)N[C@@H](CO)C(=O)N[C@@H](CO)C(=O)N[C@H](C(=O)N[C@@H](CC(=O)O)C(=O)N[C@H](C(=O)NCC(=O)N1CCC[C@H]1C(=O)N[C@@H](CC(=O)O)C(=O)N[C@H](C(=O)N1CCC[C@H]1C(N)=O)[C@@H](C)O)C(C)C)[C@@H](C)O [Compound 10, N^1-[(4S)-4-carboxy-4-(17-carboxyheptadecanoylamino)butanoyl]-[Ala1,Gly2,Ser3,Leu4,Ser5,Ala7,Gln8,Glu14,His17,Asp21,Pro22,Pro27,Asp31,Pro34,Asp35,Pro37]-human amylin] ({C18 diacid-γGlu}-AGSLSTAQTQRLAEFLHHSSDPFGAIPSSTDVGPDTP-NH2)",−71%,−77%,−37%
"CC[C@H](C)[C@H](NC(=O)[C@H](C)NC(=O)CNC(=O)[C@H](Cc1ccccc1)NC(=O)[C@@H]1CCCN1C(=O)[C@H](CC(=O)O)NC(=O)[C@H](CO)NC(=O)[C@H](CO)NC(=O)[C@H](Cc1c[nH]cn1)NC(=O)[C@H](Cc1c[nH]cn1)NC(=O)[C@H](CC(C)C)NC(=O)[C@H](Cc1ccccc1)NC(=O)[C@H](CCC(=O)O)NC(=O)[C@H](C)NC(=O)[C@H](CC(C)C)NC(=O)[C@H](CCCNC(=N)N)NC(=O)[C@H](C)NC(=O)[C@@H](NC(=O)[C@H](CCC(N)=O)NC(=O)[C@H](C)NC(=O)[C@@H](NC(=O)[C@H](CO)NC(=O)[C@H](CC(C)C)NC(=O)[C@H](Cc1c[nH]cn1)NC(=O)[C@H](CO)NC(=O)[C@H](C)NC(=O)CC[C@H](NC(=O)CCCCCCCCCCCCCCCCC(=O)O)C(=O)O)[C@@H](C)O)[C@@H](C)O)C(=O)N1CCC[C@H]1C(=O)N[C@@H](CO)C(=O)N[C@@H](CO)C(=O)N[C@H](C(=O)N[C@@H](CC(=O)O)C(=O)N[C@H](C(=O)NCC(=O)N1CCC[C@H]1C(=O)N[C@@H](CC(=O)O)C(=O)N[C@H](C(=O)N1CCC[C@H]1C(N)=O)[C@@H](C)O)C(C)C)[C@@H](C)O [Compound 25, N^1-[(4S)-4-carboxy-4-(17-carboxyheptadecanoylamino)butanoyl]-[Ala1,Ser2,His3,Leu4,Ser5,Ala7,Gln8,Ala10,Glu14,His17,Asp21,Pro22,Pro27,Asp31,Pro34,Asp35,Pro37]-human amylin] ({C18 diacid-γGlu}-ASHLSTAQTARLAEFLHHSSDPFGAIPSSTDVGPDTP-NH2)",−80%,−96%,−49%
"CC[C@H](C)[C@H](NC(=O)[C@@H]1CCCN1C(=O)CNC(=O)[C@H](Cc1ccccc1)NC(=O)[C@H](CC(N)=O)NC(=O)[C@H](CC(=O)O)NC(=O)[C@H](CO)NC(=O)[C@H](CO)NC(=O)[C@H](Cc1c[nH]cn1)NC(=O)[C@H](Cc1c[nH]cn1)NC(=O)[C@H](CC(C)C)NC(=O)[C@H](Cc1ccccc1)NC(=O)[C@H](CCC(=O)O)NC(=O)[C@H](C)NC(=O)[C@H](CC(C)C)NC(=O)[C@H](CCCNC(=N)N)NC(=O)[C@H](C)NC(=O)[C@@H](NC(=O)[C@H](CCC(N)=O)NC(=O)[C@H](C)NC(=O)[C@@H](NC(=O)[C@H](CO)NC(=O)[C@H](CC(C)C)NC(=O)[C@H](Cc1c[nH]cn1)NC(=O)[C@H](CO)NC(=O)[C@H](C)NC(=O)CC[C@H](NC(=O)CCCCCCCCCCCCCCCCC(=O)O)C(=O)O)[C@@H](C)O)[C@@H](C)O)C(=O)N[C@@H](CC(C)C)C(=O)N1CCC[C@H]1C(=O)N1CCC[C@H]1C(=O)N[C@H](C(=O)N[C@@H](CC(=O)O)C(=O)N[C@H](C(=O)NCC(=O)N[C@@H](CO)C(=O)N[C@@H](CC(N)=O)C(=O)N[C@H](C(=O)N[C@@H](Cc1ccc(O)cc1)C(N)=O)[C@@H](C)O)C(C)C)[C@@H](C)O [Compound 38, N^1-[(4S)-4-carboxy-4-(17-carboxyheptadecanoylamino)butanoyl]-[Ala1,Ser2,His3,Leu4,Ser5,Ala7,Gln8,Ala10,Glu14,His17,Asp21,Pro25,Pro28,Pro29,Asp31]-human amylin] ({C18 diacid-γGlu}-ASHLSTAQTARLAEFLHHSSDNFGPILPPTDVGSNTY-NH2)",−81%,−66%,−2%
"CC[C@H](C)[C@H](NC(=O)[C@H](C)NC(=O)CNC(=O)[C@H](Cc1ccccc1)NC(=O)[C@@H]1CCCN1C(=O)[C@H](CC(=O)O)NC(=O)[C@H](CO)NC(=O)[C@H](CO)NC(=O)[C@H](Cc1c[nH]cn1)NC(=O)[C@H](Cc1c[nH]cn1)NC(=O)[C@H](CC(C)C)NC(=O)[C@H](Cc1ccccc1)NC(=O)[C@H](CCC(=O)O)NC(=O)[C@H](C)NC(=O)[C@H](CC(C)C)NC(=O)[C@H](CCCNC(=N)N)NC(=O)[C@H](CCC(N)=O)NC(=O)[C@@H](NC(=O)[C@H](CCC(N)=O)NC(=O)[C@H](C)NC(=O)[C@@H](NC(=O)[C@H](CO)NC(=O)[C@H](CC(C)C)NC(=O)[C@H](Cc1c[nH]cn1)NC(=O)[C@H](CO)NC(=O)[C@H](C)NC(=O)CC[C@H](NC(=O)CCCCCCCCCCCCCCCCC(=O)O)C(=O)O)[C@@H](C)O)[C@@H](C)O)C(=O)N1CCC[C@H]1C(=O)N[C@@H](CO)C(=O)N[C@@H](CO)C(=O)N[C@H](C(=O)N[C@@H](CC(=O)O)C(=O)N[C@H](C(=O)NCC(=O)N1CCC[C@H]1C(=O)N[C@@H](CC(=O)O)C(=O)N[C@H](C(=O)N1CCC[C@H]1C(N)=O)[C@@H](C)O)C(C)C)[C@@H](C)O [Compound 8, N^1-[(4S)-4-carboxy-4-(17-carboxyheptadecanoylamino)butanoyl]-[Ala1,Ser2,His3,Leu4,Ser5,Ala7,Gln8,Glu14,His17,Asp21,Pro22,Pro27,Asp31,Pro34,Asp35,Pro37]-human amylin] ({C18 diacid-γGlu}-ASHLSTAQTQRLAEFLHHSSDPFGAIPSSTDVGPDTP-NH2)",−59%,−82%,−20%
"CC[C@H](C)[C@H](NC(=O)[C@@H]1CCCN1C(=O)CNC(=O)[C@H](Cc1ccccc1)NC(=O)[C@H](CC(N)=O)NC(=O)[C@H](CC(=O)O)NC(=O)[C@H](CO)NC(=O)[C@H](CO)NC(=O)[C@H](Cc1c[nH]cn1)NC(=O)[C@H](Cc1c[nH]cn1)NC(=O)[C@H](CC(C)C)NC(=O)[C@H](Cc1ccccc1)NC(=O)[C@H](CCC(=O)O)NC(=O)[C@H](C)NC(=O)[C@H](CC(C)C)NC(=O)[C@H](CCCNC(=N)N)NC(=O)[C@H](C)NC(=O)[C@@H](NC(=O)[C@H](CCC(N)=O)NC(=O)[C@H](C)NC(=O)[C@@H](NC(=O)[C@H](CO)NC(=O)[C@H](CC(C)C)NC(=O)[C@H](CO)NC(=O)CNC(=O)[C@H](C)NC(=O)CC[C@H](NC(=O)CCCCCCCCCCCCCCCCC(=O)O)C(=O)O)[C@@H](C)O)[C@@H](C)O)C(=O)N[C@@H](CC(C)C)C(=O)N1CCC[C@H]1C(=O)N1CCC[C@H]1C(=O)N[C@H](C(=O)N[C@@H](CC(=O)O)C(=O)N[C@H](C(=O)NCC(=O)N[C@@H](CO)C(=O)N[C@@H](CC(N)=O)C(=O)N[C@H](C(=O)N1CCC[C@H]1C(N)=O)[C@@H](C)O)C(C)C)[C@@H](C)O [Compound 13, N^1-[(4S)-4-carboxy-4-(17-carboxyheptadecanoylamino)butanoyl]-[Ala1,Gly2,Ser3,Leu4,Ser5,Ala7,Gln8,Ala10,Glu14,His17,Asp21,Pro25,Pro28,Pro29,Asp31,Pro37]-human amylin] ({C18 diacid-γGlu}-AGSLSTAQTARLAEFLHHSSDNFGPILPPTDVGSNTP-NH2)",−75%,−92%,−38%
